{
  "source": "ChEMBL document CHEMBL4888484",
  "about": "“Replenishing the malaria drug discovery pipeline: Screening and hit evaluation of the MMV Hit Generation Library 1 (HGL1) against asexual blood stage Plasmodium falciparum ,using a nano luciferase reporter read-out” (2022)",
  "note": "The campaign covered roughly 150,000 compounds. About 540 (0.36%) showed an effect of 50% or more. Some of the results follow.",
  "data": [
    {"tested_on": "Plasmodium falciparum", "assay": "Primary screen in NF54 nanoGlo assay, in single point, at 2uM, 72h; a lower Z score goes with more inhibition", "assay_type": "functional, Erythrocyte", "conditions": "timepoint 72 hour", "units": {"% Inhibition": "%"}, "values": [
      {"smiles": "CCc1cccc(C)c1NC(=O)COc1ccc(N2C[C@@H](C(=O)NCc3ccc(C)cc3)CC2=O)cc1", "% Inhibition": -14, "Z score": 1.73},
      {"smiles": "C[C@](O)(C(=O)NCC(=O)NC1CCCC1)c1ccc(F)cc1", "% Inhibition": 35, "Z score": -0.73},
      {"smiles": "C[C@@H](CS(=O)(=O)c1cccc2cccnc12)N1CCCCC1", "% Inhibition": -1, "Z score": 0.17},
      {"smiles": "Cc1cnccc1NCCNc1ccc(C(N)=O)cn1", "% Inhibition": -13, "Z score": 2.42},
      {"smiles": "CCN(CC1COc2ccccc2O1)C(=O)CN1C(=O)NC2(CCCCC2C)C1=O", "note": "(configuration not stated)", "% Inhibition": -1, "Z score": 0.27},
      {"smiles": "c1cc2c(cc1-c1nnc3ccc(NC4CCC4)nn13)OCO2", "% Inhibition": -11, "Z score": 1.73},
      {"smiles": "Cc1cc(C)c(NC(=O)c2c(Oc3ccc(F)cc3)nc(C)c(Cl)c2C)c(C)c1", "% Inhibition": -3, "Z score": 0.54},
      {"smiles": "CCCS(=O)(=O)NC[C@H]1CCC(=O)N(Cc2ccccc2)CC1", "% Inhibition": 10, "Z score": -1.01},
      {"smiles": "CC(=O)C1C(c2cccnc2)c2c(C)[nH]c(=O)c(C#N)c2CC1(C)O", "note": "(configuration not stated)", "% Inhibition": -8, "Z score": 1.13},
      {"smiles": "Cc1ccccc1-c1csc(=O)n1Cc1cc(C2CC2)no1", "% Inhibition": 9, "Z score": -1.81},
      {"smiles": "CCC1(CC)CN(C(=O)c2ccc3ccccc3n2)CC[S@@+]1[O-]", "% Inhibition": -6, "Z score": 0.67},
      {"smiles": "CN(CCc1cnn(C)c1)Cc1cc(O)c2cccc(F)c2n1", "% Inhibition": 0, "Z score": 0},
      {"smiles": "O=C(Nc1ccc2c(c1)CCC2)[C@@H]1CCCN1C(=O)c1ccco1", "% Inhibition": -3, "Z score": 0.43},
      {"smiles": "O=C(CCc1cccnc1)Nc1nc2ccc(F)cc2s1", "% Inhibition": 4, "Z score": -0.65},
      {"smiles": "Cc1nc(C(=O)N2CCc3nc[nH]c3C2)c(-c2ccccc2)s1", "% Inhibition": -6, "Z score": 0.86},
      {"smiles": "CC(C)c1ccc(C(=O)NCc2ccn(C3CCCC3)n2)c(=O)[nH]1", "% Inhibition": 2, "Z score": -0.44},
      {"smiles": "Cc1ncc(C(=O)N[C@H]2CCS(=O)(=O)[C@H]2C)c(N)n1", "% Inhibition": -12, "Z score": 1.41},
      {"smiles": "NC(=O)c1csc(CN2CCc3c(F)ccc(F)c3C2)c1", "% Inhibition": 18, "Z score": -2.38},
      {"smiles": "O=S(=O)(NCc1ccnc(-c2cccnc2)c1)c1cccs1", "% Inhibition": -3, "Z score": 0.45},
      {"smiles": "COCC1(CNC(=O)c2cn(C)nc2C(C)C)CCCCC1", "% Inhibition": -6, "Z score": 0.65},
      {"smiles": "O=C(c1ccc2[nH]c(=O)[nH]c2c1)N1CC[C@H]1C1CCCC1", "% Inhibition": -16, "Z score": 2.14},
      {"smiles": "CC(=O)NC1CN(C(=O)[C@]2(c3ccccc3)CCCO2)C1", "% Inhibition": -14, "Z score": 2.97},
      {"smiles": "CC(C)COc1cncc(N2CCn3c(nnc3C(F)(F)F)C2)n1", "% Inhibition": -10, "Z score": 0.97},
      {"smiles": "Cc1cc(N2CCN3C(=O)C(=O)NC[C@H]3C2)ncc1Br", "% Inhibition": 10, "Z score": -0.89},
      {"smiles": "OCCOc1ccccc1-c1cn(Cc2ccccn2)nn1", "% Inhibition": -5, "Z score": 0.62},
      {"smiles": "COc1ccc(CC(=O)N(C)c2nncs2)cc1OC(F)F", "% Inhibition": 0, "Z score": -0.02},
      {"smiles": "Cn1c(C(=O)NCc2ccccc2Cl)cc2ccncc21", "% Inhibition": 4, "Z score": -0.62},
      {"smiles": "CC1CCC(C(N)=O)CN1C(=O)C1CC1c1ccco1", "note": "(configuration not stated)", "% Inhibition": -7, "Z score": 0.99},
      {"smiles": "CC1CC(C)CN(C(=O)c2cccc(S(=O)(=O)N3CCCC3)c2)C1", "note": "(configuration not stated)", "% Inhibition": 1, "Z score": -0.17},
      {"smiles": "N#CCc1ccc(OCCNC(=O)[C@@H]2Cc3cccc(F)c3O2)cc1", "% Inhibition": -3, "Z score": 0.53},
      {"smiles": "O=c1scnn1Cc1ccc(F)cc1", "% Inhibition": -12, "Z score": 1.06},
      {"smiles": "Cn1c(C2CCC2)nnc1N1CCCC[C@H](S(C)(=O)=O)C1", "% Inhibition": -1, "Z score": 0.12},
      {"smiles": "Fc1ccc(NC[C@H]2CCCN2)cc1Cl", "% Inhibition": -10, "Z score": 1.22},
      {"smiles": "Cc1cccc(NCC(=O)Nc2ccccc2)c1C(=O)N1CCCC1", "% Inhibition": -10, "Z score": 1.14},
      {"smiles": "CS(=O)(=O)[C@H]1C[C@H](N[C@H](c2ccccc2F)C2CCOCC2)C1", "% Inhibition": -3, "Z score": 0.42},
      {"smiles": "CCn1cc(S(=O)(=O)N[C@H]2CN(C)C[C@@H]2OC)c(C)n1", "% Inhibition": -8, "Z score": 1.36},
      {"smiles": "Cc1ccnc(NC(=O)c2csc(Cl)c2)n1", "% Inhibition": -11, "Z score": 2.02},
      {"smiles": "Cc1ncccc1-c1csc(N2CCOCC2)n1", "% Inhibition": -13, "Z score": 2},
      {"smiles": "Cc1ccc(Cl)cc1NC(=O)N(C)CCc1noc(COc2ccccc2F)n1", "% Inhibition": -5, "Z score": 0.84},
      {"smiles": "Cc1cc(C)c(N(C)S(=O)(=O)c2cc3c(cc2Cl)Oc2cc(C)ccc2NC3=O)c(C)c1", "% Inhibition": -7, "Z score": 0.96},
      {"smiles": "O=S(=O)(Cc1ccccc1)N1C2CCC1CC(=C1CC1)C2", "% Inhibition": 12, "Z score": -1.51},
      {"smiles": "CCOc1cc(C(=O)N2CCCc3cc(C)ccc32)ncn1", "% Inhibition": -2, "Z score": 0.41},
      {"smiles": "CCn1nccc1CN(C)Cc1nnc(C)o1", "% Inhibition": 0, "Z score": 0.04},
      {"smiles": "CN(C)C(=O)N1CCN(c2nnc(Cc3ccccc3F)s2)CC1", "% Inhibition": -9, "Z score": 0.91},
      {"smiles": "O=C(O)[C@H]1CN(C(=O)c2cc3c(s2)CCCC3)C[C@@H]1C1CC1", "% Inhibition": -7, "Z score": 1.27},
      {"smiles": "COCc1nsc(NC(=O)c2ccncc2)n1", "% Inhibition": -16, "Z score": 1.36},
      {"smiles": "CN(Cc1ccccc1)c1ccc2ccccc2n1", "% Inhibition": 5, "Z score": -0.73},
      {"smiles": "O=C(NCCc1nccn1Cc1ccccc1)[C@H]1CCn2ccnc2C1", "% Inhibition": 5, "Z score": -0.73},
      {"smiles": "C[C@@H](COc1ccccc1F)NS(=O)(=O)N1CCCC1", "% Inhibition": -12, "Z score": 1.5},
      {"smiles": "O=C(NCc1ccccn1)[C@@H](c1ccccc1)N1C(=O)c2ccccc2C1=O", "% Inhibition": 0, "Z score": -0.05},
      {"smiles": "O=C(Nc1ccccc1-n1cc(Br)cn1)c1ccon1", "% Inhibition": 14, "Z score": -1.85},
      {"smiles": "Cc1cc(NC(=O)C2CCN(S(C)(=O)=O)CC2)ccc1N1CCCC1=O", "% Inhibition": -10, "Z score": 1.58},
      {"smiles": "c1ccc([C@H](CNCc2cnc(N3CCOCC3)nc2)N2CCCCCC2)cc1", "% Inhibition": -7, "Z score": 0.71},
      {"smiles": "Cc1c(NC(=O)C[C@H]2CCCCO2)cccc1N(C)C", "% Inhibition": 4, "Z score": -0.63},
      {"smiles": "Cc1ccc2nc(-c3ccc(NS(=O)(=O)Cc4ccc(C)c(C)c4)cc3)sc2c1", "% Inhibition": -18, "Z score": 2.15},
      {"smiles": "Cc1ccc(-c2ccnn2C)cc1NC(=O)[C@H]1CCCOC1", "% Inhibition": 37, "Z score": -1.42},
      {"smiles": "NCC1([C@@H]2CCCCN2C(=O)Cc2ccc3cnccc3c2)CCC1", "% Inhibition": 6, "Z score": -0.87},
      {"smiles": "CCn1nc(C)c(CN(CCOC)C(=O)c2ccc3nc(C)oc3c2)c1C", "% Inhibition": 6, "Z score": -1.13},
      {"smiles": "CC1=C(C(=O)N2CCC[C@H](N3CCCC3=O)CC2)CCC1", "% Inhibition": -9, "Z score": 0.91},
      {"smiles": "C[C@@]1(C2CC2)NC(=O)N(c2cccc(C#N)c2)C1=O", "% Inhibition": -10, "Z score": 1.33},
      {"smiles": "O=C(CN1CCOCC1)N1CCN(CCCOc2ccccc2)CC1", "% Inhibition": 37, "Z score": -5.4},
      {"smiles": "CC(C)c1cc(C(=O)N2C[C@@H](CN3CCOCC3)C[C@H](CO)C2)[nH]n1", "% Inhibition": 5, "Z score": -1.06},
      {"smiles": "COC1CCN(c2ccc(NC(=O)c3cc(C)cs3)cc2)CC1", "% Inhibition": -10, "Z score": 1.61},
      {"smiles": "CC(C)N(C)CCNC(=O)N[C@@H](C)c1nc(C(C)(C)C)cs1", "% Inhibition": -6, "Z score": 0.64},
      {"smiles": "CCC(=O)Nc1nnn(CCc2ccc(OC)cc2)c1CC", "% Inhibition": 3, "Z score": -0.38},
      {"smiles": "C[C@@H](C(=O)Nc1cccc(S(=O)(=O)N2CCCCC2)c1)N1CCCc2ccccc21", "% Inhibition": -11, "Z score": 1.12},
      {"smiles": "O=S(=O)(CCN1CCn2nc(Cc3ccccc3)cc2C1)c1ccccc1", "% Inhibition": -7, "Z score": 1.34},
      {"smiles": "CCCN(C)c1nccn2c(=O)n(CC(=O)Nc3cc(C)ccc3C)nc12", "% Inhibition": -16, "Z score": 1.52},
      {"smiles": "CC(C)(C)OC(=O)Nc1cc(Br)ccc1C(=O)O", "% Inhibition": 5, "Z score": -0.78},
      {"smiles": "CCCOc1ccccc1-c1nc2c3c(ncn2n1)-c1ccccc1CC31CCCC1", "% Inhibition": -6, "Z score": 0.91},
      {"smiles": "Nc1nccc(-c2cnn(CC(=O)Nc3ccnn3CC3CCCCC3)c2)n1", "% Inhibition": -12, "Z score": 1.62},
      {"smiles": "CCn1nccc1S(=O)(=O)N[C@H]1CCOC[C@@H]1OCc1ccccc1", "% Inhibition": -6, "Z score": 0.65},
      {"smiles": "COc1ccc([C@@H](c2c(O)ccc3ccccc23)N2CCOCC2)c(OC)c1", "% Inhibition": 2, "Z score": -0.27},
      {"smiles": "CCN(C(=O)N1CC[C@H](N(C)Cc2ccccc2)C1)C(C)C", "% Inhibition": 4, "Z score": -0.5},
      {"smiles": "O=C(CCC(=O)c1ccccc1)NCCn1ccnc1-c1cnccn1", "% Inhibition": 5, "Z score": -0.7},
      {"smiles": "CO[C@@H](C(=O)NCc1ccc[nH]1)c1ccccc1C(F)(F)F", "% Inhibition": -5, "Z score": 0.86},
      {"smiles": "CCN(C(=O)c1cccc(F)c1F)[C@H]1CCN(C(=O)c2csc(C)n2)C[C@@H]1O", "% Inhibition": -6, "Z score": 0.5},
      {"smiles": "COC(=O)[C@@H]1C[C@@H](NC(=O)c2cccc3ccccc23)CN1", "% Inhibition": 0, "Z score": -0.01},
      {"smiles": "CC(C)CC[C@@]1(C2CCN(C(=O)c3c(F)ccc(F)c3F)CC2)NC(=O)N(CCN(C)C)C1=O", "% Inhibition": -9, "Z score": 1.68},
      {"smiles": "CC(=O)NCCc1ncc(C)n1C1CCCC1", "% Inhibition": -7, "Z score": 0.99},
      {"smiles": "O=C(Cn1nc(N2CCOCC2)c2ccccc2c1=O)Nc1cccc(Cl)c1", "% Inhibition": -18, "Z score": 2.65},
      {"smiles": "COc1ccc(-n2cc(-c3ccc4c(c3)OCO4)n(CC(=O)Nc3ccccc3Cl)c2=O)cc1", "% Inhibition": -12, "Z score": 2.06},
      {"smiles": "CC(NC(=O)NC1CC1c1cccc(F)c1F)C1CCOCC1", "note": "(configuration not stated)", "% Inhibition": -12, "Z score": 1.64},
      {"smiles": "CN(CC(=O)NCCC[C@H]1CCOC1)Cc1ccncc1", "% Inhibition": -15, "Z score": 1.43},
      {"smiles": "Cc1cc(=O)n(CC(=O)Nc2ccc3c(c2)OCO3)c(N)n1", "% Inhibition": 4, "Z score": -0.76},
      {"smiles": "CCn1cc(NC(=O)NCc2ccc(N3CCCCC3)nc2)cn1", "% Inhibition": -5, "Z score": 0.98}
    ]}
  ]
}
